From patent US20240141364A1, “DRUG-REGULATABLE TRANSCRIPTIONAL REPRESSORS” (Senti Biosciences, Inc., priority 2021, published 2024) come the findings set out here.

Assay type in all cases: cell-based
The subject of test [1] is mCherry linked to an ITM-responsive promoter in U87-MG reporter cells. Briefly: mCherry reporter expression with N-terminal or C-terminal degron repressors, with or without pomalidomide (FACS). Particulars: no drug vs 1 μM pomalidomide; mCherry gMFI; FIG. 6A. The text has this:
A reporter cell line was produced as described in Example 2. Reporter cells were transduced (50,000 cells/transduction) with lentivirus (50,000 pg each, as titered by p24 assay) encoding constructs either having the degron N-terminal to the inducible transcription modulator (ITM) (Table 8) or having the degron C-terminal to the ITM (Table 9). Constructs SB03758 and SB03759 as described in Example 2 were also included in this experiment. Each construct format is described from 5′ to 3′ (ORF from N to C terminus).
On day 2 following transduction, cells transduced with each construct were incubated either in the presence of 1 μM pomalidomide or in the absence of the drug. On day 5 of drug treatment, cells were assayed by Fluorescence-Activated Cell Sorting (FACS) for mCherry expression. The geometric mean fluorescent intensity (MFI) of mCherry for each construct having the degron at the N-terminus is shown in FIG. 6A. The fold difference between the geometric MFI of mCherry for the no drug condition versus the pomalidomide treatment condition for each construct having the degron at the N-terminus was calculated as shown in FIG. 6B. […] The fold difference between the geometric MFI of mCherry for the no drug condition versus the pomalidomide treatment condition for each construct having the degron at the C-terminus was calculated as shown in FIG. 7B.

The test system is the same in test [2]. Nature of the test: mCherry reporter expression in reporter cells transduced with degron-linked repressors, with or without pomalidomide (FACS). An excerpt:
A reporter cell line was produced by transducing U87-MG cells with lentivirus encoding mCherry linked to an ITM-responsive promoter of SEQ ID NO: 56 including a EF1a core promoter sequence with a zinc finger binding domain composed of four ZF10-1 binding sites upstream of the core promoter sequence.
A reporter cell line was produced by transducing U87-MG cells with lentivirus encoding mCherry linked to an ITM-responsive promoter of SEQ ID NO: 56 including an EF1a core promoter sequence with a zinc finger binding domain composed of four ZF10-1 binding sites upstream of the core promoter sequence. Reporter cells were transduced (50,000 cells/transduction) with lentivirus (50,000 pg each, as titered by p24 assay) encoding each construct as shown in Table 6. Each construct format is described from 5′ to 3′ (ORF from N to C terminus). Constructs SB03757 and SB03760 include a minKrab repression domain that is codon optimized for E. coli, and constructs SB03758 and SB03761. For constructs SB03758 and SB03761, the entire construct was codon optimized for E. coli.
On day 2 following transduction, cells were incubated either in the presence of 1 μM pomalidomide or in the absence of the drug. On day 5 of drug treatment, cells were assayed by Fluorescence-Activated Cell Sorting (FACS) for mCherry expression.

The test system of test [3] is IL-12 linked to an ITM-responsive promoter (SB04640) in U87MG cells. Briefly: IMiD-ON regulated IL-12 expression, pomalidomide titration, IL12 p70 ELISA of supernatant. Particulars: for IL-12 expression upon addition of the IMiD: drug-free vs pomalidomide 1 nM, 10 nM, 100 nM, 1 uM, FIG. 8. As to the method:
(§1) 50,000 U87MG cells were seeded in 24 w dish 18-14 hours before transduction then transduced with 25 k pg of degron-linked repressor (SB03759, SB03936, or SB04397) and 25 k pg of IL12 reporter construct (SB04640) (virus was quantified by p24 ELISA). A construct encoding IL-12 linked to an ITM-responsive promoter including an EFS promoter sequence with a zinc finger binding domain composed of four ZF10-1 binding sites upstream of the EFS promoter sequence (SEQ ID NO: 67) was used as a reporter.
For Pomalidomide titration experiments, two days post transduction, cells were split into drug free media or 1 uM pomalidomide conditions. Then 3 days later, 100 k cells of each condition were seeded into a 24 w plate and 24 hours later, supernatant was collected and assayed using IL12 p70 ELISA kit (#D1200 R&D Systems) to quantity IL-12.
(ELISA stands for enzyme-linked immunosorbent assay.)

The test system is the same in test [4]. Briefly: Kinetics of IMiD ON switch, IL-12 in supernatant after pomalidomide or iberdomide. Particulars: for IL-12 expression levels in supernatant over time: SB04640 reporter plus repressor vs reporter only control. As to the method:
as §1
For kinetic experiment studies, transduced cells were seeded 100 k cells per well in 24 w plate. Then 24 hours later, supernatant was replaced with drug-free or 1 uM Pomalidomide or Iberdomide. Supernatant was harvested at indicated elapsed times (3 hours, 6 hours, 12 hours, 16 hours and 24 hours) post drug treatment.

Some results are limits rather than exact numbers.

B1: SB03759: degron-A(EAAAK)3A-ZF10-minKrab-AuSLDE; SEQ ID NO: 61 (AA), 62 (nucleic acid) (protein)
chain: FNVLMVHKRSHTGERPLQCEICGFTCRQKGNLLRHIKLHTGEKPFKCHLCNYACQRRDALAEAAAKEAAAKEAAAKADYKDHDGDYKDHDIDYKDDDDKMAPKKKRKVTCRSRPGERPFQCRICMRNFSRRHGLDRHTRTHTGEKPFQCRICMRNFSDHSSLKRHLRTHTGSQKPFQCRICMRNFSVRHNLTRHLRTHTGEKPFQCRICMRNFSDHSNLSRHLKTHTGSQKPFQCRICMRNFSQRSSLVRHLRTHTGEKPFQCRICMRNFSESGHLKRHLRTHLRGSGGGGSGGTRTLVTFKDVFVDFTREEWKLLDTAQQIVYRNVMLENYKNLVSLGY
Consider B1, for which the “repression of reporter expression and its release by drug” value in test [1] is given as “reversibility of repression”. Besides, the “drug-induced release of repression (fold difference of geometric MFI of mCherry, no drug vs pomalidomide)” value in test [2] (1 μM pomalidomide, day 5 of drug treatment, FIG. 3) is given as “drug-induced release of repression was possible”. In test [2] (presence or absence of 1 μM pomalidomide, FIGS. 4A & 4B), the “drug-dependent regulation of repression (mCherry histogram plots)” value is “regulatable in a drug-dependent manner”.

B2: SB04397: all E. coli cod opt: d913-A(EAAAK)3A-ZF10-1-minKrab-BFP-2x(AuSLDE); SEQ ID NO: 65 (AA), 66 (nucleic acid) (protein)
chain: FNVLMVHKRSHTGERPLQCEICGFTCRQKGNLLRHIKLHTGEKPFKCHLCNYACQRRDALAEAAAKEAAAKEAAAKADYKDHDGDYKDHDIDYKDDDDKMAPKKKRKVTCRSRPGERPFQCRICMRNFSRRHGLDRHTRTHTGEKPFQCRICMRNFSDHSSLKRHLRTHTGSQKPFQCRICMRNFSVRHNLTRHLRTHTGEKPFQCRICMRNFSDHSNLSRHLKTHTGSQKPFQCRICMRNFSQRSSLVRHLRTHTGEKPFQCRICMRNFSESGHLKRHLRTHLRGSGGGGSGGTRTLVTFKDVFVDFTREEWKLLDTAQQIVYRNVMLENYKNLVSLGYGGGGSGGTMSELIKENMHMKLYMEGTVDNHHFKCTSEGEGKPYEGTQTMRIKVVEGGPLPFAFDILATSFLYGSKTFINHTQGIPDFFKQSFPEGFTWERVTTYEDGGVLTATQDTSLQDGCLIYNVKIRGVNFTSNGPVMQKKTLGWEAFTETLYPADGGLEGRNDMALKLVGGSHLIANIKTTYRSKKPAKNLKMPGVYYVDYRLERIKEANNETYVEQHEVAVARYCDLPSKLGHKLN
Turning to B2, the “Pomalidomide concentration at which IL-12 expression recovers to reporter only levels” value in test [3] (IL-12 as fraction of constitutive IL-12 reporter, FIG. 8 bottom panel) is on record as not below 10 nM. Moreover, the “IL-12 expression upon addition of the IMiD” value in test [3] is “increased”. In test [4] (1 uM IMiD), the “time to detected expression of IL-12 after adding IMiDs” value was not above 24 h. The “IL-12 expression levels in supernatant over time” value is on record as “increased” in test [4] (1 uM Iberdomide, FIG. 9 bottom panel) and “increased” in test [4] (1 uM pomalidomide, FIG. 9 top panel). Moreover, the “IL-12 expression levels normalized to SB04640 reporter only” value in test [4] (1 uM Pomalidomide, hours 12 and 16, FIG. 10) is “increased IL-12 expression”.

B3: SB03936: degron-A(EAAAK)3A-HDAC4-ZF10; SEQ ID NO: 63 (AA), 64 (nucleic acid) (protein)
chain: FNVLMVHKRSHTGERPLQCEICGFTCRQKGNLLRHIKLHTGEKPFKCHLCNYACQRRDALAEAAAKEAAAKEAAAKASSQSHPDGLSGRDQPVELLNPARVNHMPSTVDVATALPLQVAPSAVPMDLRLDHQFSLPVAEPALREQQLQQELLALKQKQQIQRQILIAEFQRQHEQLSRQHEAQLHEHIKQQQEMLAMKHQQELLEHQRKLERHRQEQELEKQHREQKLQQLKNKEKGKESAVASTEVKMKLQEFVLNKKKALAHRNLNHCISSDPRYWYGKTQHSSLDQSSPPQSGVSTSYNHPVLGMYDAKDDFPLRKTASEPNLKLRSRLKQKVAERRSSPLLRRKDGPVVTALKKRPLDVTDSACSSAPGSGPSSPNNSSGSVSAENGIAPAVPSIPAETSLAHRLVAREGSAAPLPLYTSPSLPNITLGLPATGPSAGTAGQQDTERLTLPALQQRLSLFPGTHLTPYLSTSPLERDGGAAHSPLLQHMVLLEQPPAQAPLVTGLGALPLHAQSLVGADRVSPSIHKLRQHRPLGRTQSAPLPQNAQALQHLVIQQQHQQFLEKHKQQFQQQQLQMNKIIPKPSEPARQPESHPEETEEELREHQALLDEPYLDRLPGQKEAHAQAGVQVKQEPIESDEEEAEPPREVEPGQRQPSEQELLFRQQALLLEQQRIHQLRNYQASMEAAGIPVSFGGHRPLSRAQSSPASATFPVSVQEPPTKPRFTTGLVYDTLMLKHQCTCGSSSSHPEHAGRIQSIWSRLQETGLRGKCECIRGRKATLEELQTVHSEAHTLLYGTNPLNRQKLDSKKLLGSLASVFVRLPCGGVGVDSDTIWNEVHSAGAARLAVGCVVELVFKVATGELKNGFAVVRPPGHHAEESTPMGFCYFNSVAVAAKLLQQRLSVSKILIVDWDVHHGNGTQQAFYSDPSVLYMSLHRYDDGNFFPGSGAPDEVGTGPGVGFNVNMAFTGGLDPPMGDAEYLAAFRTVVMPIASEFAPDVVLVSSGFDAVEGHPTPLGGYNLSARCFGYLTKQLMGLAGGRIVLALEGGHDLTAICDASEACVSALLGNELDPLPEKVLQQRPNANAVRSMEKVMEIHSKYWRCLQRTTSTAGRSLIEAQTCENEEAETVTAMASLSVGVKPAEKRPDEEPMEEEPPLGGGGSGGTDYKDHDGDYKDHDIDYKDDDDKMAPKKKRKVTCRSRPGERPFQCRICMRNFSRRHGLDRHTRTHTGEKPFQCRICMRNFSDHSSLKRHLRTHTGSQKPFQCRICMRNFSVRHNLTRHLRTHTGEKPFQCRICMRNFSDHSNLSRHLKTHTGSQKPFQCRICMRNFSQRSSLVRHLRTHTGEKPFQCRICMRNFSESGHLKRHLRTHLRGS
As for B3, the “IL-12 expression upon addition of the IMiD” value in test [3] was “increased”.
